Variants at the background level are over-represented here.
B1: TPR 5TU (parent)
chain: GGAUCUUCUCGAUCUAACAAAAAAGACAAAUCUGCCACAAAGCUUGAGAGCAUCUUCGGAUGCAGAGGCGGCAGCCUUCGGUGGCGCGAUAGCGCCAACGUUCUCAACUAUGACACGCAAAACGCGUGCUCCGUUGAAUGGAGUUUAUCAUG

Variants of: B1
Experiment: polymerase ribozyme fitness, log enrichment relative to wild type (log ratio); higher = more active; in vitro selection for triplet polymerase activity
Outline: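 Libraries of mutants in each subunit of a heterodimeric triplet polymerase ribozyme were generated by PCR and transcribed. In triplicate, each went through one in vitro selection round: annealing with biotinylated primer, partner subunit and triplets; frozen incubation at −7 °C; gel excision of extended constructs; streptavidin-bead capture; RT-PCR. Fitness, taken from Illumina sequencing of input and output libraries, is the logarithm of a genotype's enrichment over wild-type enrichment, averaged across replicates with inverse-variance weights. The logarithm is base 2, and genotypes needed ≥10 input reads and ≥1 read per output to be kept.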

Polymerase ribozyme fitness (log ratio), -1.84:
U31A A91G U144G

Polymerase ribozyme fitness (log ratio), ≤ -4.2:
A29U C43A C85G C116U A120U G141C
A30U A60G G80A C96U G143A
A30U A64C C72U A97U A119U G136A
A30U G50A A66C U77A C93A G133C G140C U151G
A30G A49C C75U C95G C99A U144A
A30G G74C G83U A106C
A29U U31A G80A C96A A107U
A30C A49C C51G G94C G126U G133A U139A
A30G G74U C93A U102C U127G C129G U144G
A30C A150C
A30G C51A G92A U135G
A30U U56A C93U G124U G126A
A30C A39U G50A G94C G124U
A30G C93U
A29U G42U G84U C114A
A29U G62A G67A U102A C125U U146G
A30G U44A A49U C87U G88A G92A A115U
A29U U44A U101C A106C A113C A122U G140U
U31A C32G U56A G62U A64U C95U A122C
A30G C85G C116U U146C
A29U C57A G68U C118G U139C U148A
A30C A47U A49U G50U U56A G94A G140C
A30C G59C A60G U61G C116G C125G
A30U U77C U111G
U31A C32A A41C G86U A106U A138U
A29U U44A C51U A73U C85G
A30U A41C G58U G81A
A29U C93A
A30G U53A A110U U127C A147C
A30C C36A U45A G50C C93U A119G A137C U145A
A29U G50C G68C G136C
A30G G71A G92A C125G
A30C G46U C95G U102G
A30C G84A A98C A142U
A29U C69G C79U C95U U109G
A30U U53G C76A G92A A115C
U31A A47C C75U A98U G141U
A30U A52U U90A C93G A113C
A30U U44A G46C C57A U90A A97U G140U
A29U C75G C85A U109C G128A C129G A147C U151G
A30C C95G C108U C132G G133U
A30U U31A U44A C93U
A30U G58A C87U U90G U101A A110C G112A G126U
A30G A40C C87G G152U
A30U C54U U77A G84A G140C
A29U C36A U55A C85G A98G
A30U C32U A115U G143C
A30U G74A
A30U U56A G58U C79A C93U C108G U111A A138G
A29U G59A C85G G92A C116G A120U
A29U C114U A137G G141A U148C
A29U C36U U55A C85G
U31A A37C U55A G86U A110G
A29U G67C C79A U82A G94U C95G C131G U145A
A30U C35U U130C A137C
A30G G50U G88A G140C A147U
A30U A39C U45A U55A U77G C87U C95U
A30U A49C G58A A119C G128U U134G
A30G G84U C118A A121C
A30U A39G A49U C72A U90C G94A C99A U102G A137C G141C
A29U U56A U102G
A30G C75G C93U A121G
A30U C38U C75U A91C C93U A98G A142C
A30U G50U U56G G58C G152A
A29U G59U U82G C93U C114G G141C
A30U C85A
A30U C85G
A30C A47C C85G C93A A138G
A29U A66C C75G C85G U145A
A30C A47C G50A U53A G86A U139C G141U
A30U A41G C57G U61A A97G U101G G141C
A30C A49G G86A C96A C105G C108U U145C
A30G G42C U45A A64G G68A G86U G117A
A30U G42U G65A G86U U104G
U31A A52C C85U C96U C114U U134A
A29U G46A C69G U78G G94U C96G C118G
U31A A64G G83U G94U A138U A147U
A29U U44A C85G G124A G152A
A30C A37C A49G A52C U55A U82G C87U U104G
A30G C43U G83U U109C A138G U145C C149A
A30U C57A G68A C108G
A29U G88C C105G C123U U144A
A30U C63A C85U C99A C105G C123G A142C
A30U A137U A138U G143C A147U
A30U G50A U77C
A30U A40C U55G G86U
A30C U53C G68U U109G U135G U148G
A30U C51U G62C U82G G133U
A29U C38U A39G U101G
A30U U56G C85A A121G
A30U U61A C95G U101G U102G C105A C118G
A30U C75G G84U C103G G124C
A29U U139A
A30C C43A U56G A91G C149U
A30G G46A A49G A110U U127A
A30C U55A C63G C69A A97C G100U A115G A119G
A29U C35U A97G U139A G140C
A30U A52C U82A U101A G128A G136U G141C
A29U U53A A91U U102A
A30C G84A G94U G128U
A29U C38U G86A
A30U G50C C87A C95A A137G U146G
A30C A120G
A30G A91C C96U A122G G141C
A30C U55C A98G C118U A147C
A30G A52C G83A A89G C116U A150G U151G
A30C C87G C123G G124A
A30U U45A G94U C131G
A29U U56G A91G G92U G100U U101G C105A A107U
A30C G68C C87A C105G A107U G117C A150C
A30C C38U G50U G65U G80C
A30C C32A C51G A89G C93U A106G U145G G152A
A30G C63U C87A C105U
A30U A52C A91G G117A
U31A A52U G62U C87U U102G G140C G141U
A30G C85G A121U
A30U A52G A91G C95U U102G C103G C105U
A29U G126A
U31A C38U A52U A60C A106G G128A
A30G A40G G62A G68A C118U U146A
A29U A52C G68C C96U C99G A121U G126A A150U
A30U A73U G86U G126A
A29U A49C C76A G84U U104G
A30G C36G A37C A64U G68A A91G A98U A121G U145C C149U
A29U U44G G50U C75A C96A C105U C125A
A29U A49C G81U C96G A98C C116U G141C
A30G U55A G83C U135G
A29U A73G G92U G100U
U31A A52G A60C G62A G71U U144G
A29U C93U A150C
A29U G50A U55G G81A C96A U145C
A30U A66U A138U
A29U G48C A60C G65A A66C C76U A91G
A29U C36A C85G
A29U A91U
U31A A49C C99G C108G
A29U G117U
A29U C63G A64C C93A C105G A107G C108U G152A
A30U U53A U102G G117U
A30G U77A A150G
A30G G58U C76A A89U C105U A121U U146C
A29U G42A G50A C85U G117A
A30G A41U U45A G50A C51U U53G A91C C108G C114G
A30G U55A G81C C95A A97U A115C G124A
A30C U53A C75A C76G C114U
A29U C95G
A30U U77G G84U C129G G152C
A30C U31G U82A G92C C103A U134G
A30U G46U U53A C57U C69G G81A C95U U144A
A30G A47U C95U U135G G140C
A29U C35G G71C
A30G A49C C93G
A30C G48A G59A A115G A121U C125G G141C A142G
A30G C85U G128A
U31A A39C G59U C87U U90A G136A U145C
A29U C93A U146G
A29U A66U G92A U111G
A29U C99U U145G
A29U G46U G70U U90G C95U A115G G117U A120U
A29U G58C C96U U101G C118G C132G
A30U G46U U55G C79A U101G C108G C116U A119G G136U
A30U A41U A47C C93U A107G A115C U135A

Polymerase ribozyme fitness (log ratio), -3.51:
A30G A41C

Polymerase ribozyme fitness (log ratio), -3.06:
A30G C85U

Polymerase ribozyme fitness (log ratio), 0.37:
U31A

Polymerase ribozyme fitness (log ratio), -3.54:
A29U C95U
